Data on 60 compounds can be found in article PMC4336329 (PLoS ONE, 2015).

The campaign covered roughly 310,000 compounds. About 2,200 (0.71%) showed an effect of 50% or more. The effect is printed as a negative number. This is one part of the list.

human ether-à-go-go-related gene (hERG) potassium channel, sequence (Q12809 whole entry, looked up): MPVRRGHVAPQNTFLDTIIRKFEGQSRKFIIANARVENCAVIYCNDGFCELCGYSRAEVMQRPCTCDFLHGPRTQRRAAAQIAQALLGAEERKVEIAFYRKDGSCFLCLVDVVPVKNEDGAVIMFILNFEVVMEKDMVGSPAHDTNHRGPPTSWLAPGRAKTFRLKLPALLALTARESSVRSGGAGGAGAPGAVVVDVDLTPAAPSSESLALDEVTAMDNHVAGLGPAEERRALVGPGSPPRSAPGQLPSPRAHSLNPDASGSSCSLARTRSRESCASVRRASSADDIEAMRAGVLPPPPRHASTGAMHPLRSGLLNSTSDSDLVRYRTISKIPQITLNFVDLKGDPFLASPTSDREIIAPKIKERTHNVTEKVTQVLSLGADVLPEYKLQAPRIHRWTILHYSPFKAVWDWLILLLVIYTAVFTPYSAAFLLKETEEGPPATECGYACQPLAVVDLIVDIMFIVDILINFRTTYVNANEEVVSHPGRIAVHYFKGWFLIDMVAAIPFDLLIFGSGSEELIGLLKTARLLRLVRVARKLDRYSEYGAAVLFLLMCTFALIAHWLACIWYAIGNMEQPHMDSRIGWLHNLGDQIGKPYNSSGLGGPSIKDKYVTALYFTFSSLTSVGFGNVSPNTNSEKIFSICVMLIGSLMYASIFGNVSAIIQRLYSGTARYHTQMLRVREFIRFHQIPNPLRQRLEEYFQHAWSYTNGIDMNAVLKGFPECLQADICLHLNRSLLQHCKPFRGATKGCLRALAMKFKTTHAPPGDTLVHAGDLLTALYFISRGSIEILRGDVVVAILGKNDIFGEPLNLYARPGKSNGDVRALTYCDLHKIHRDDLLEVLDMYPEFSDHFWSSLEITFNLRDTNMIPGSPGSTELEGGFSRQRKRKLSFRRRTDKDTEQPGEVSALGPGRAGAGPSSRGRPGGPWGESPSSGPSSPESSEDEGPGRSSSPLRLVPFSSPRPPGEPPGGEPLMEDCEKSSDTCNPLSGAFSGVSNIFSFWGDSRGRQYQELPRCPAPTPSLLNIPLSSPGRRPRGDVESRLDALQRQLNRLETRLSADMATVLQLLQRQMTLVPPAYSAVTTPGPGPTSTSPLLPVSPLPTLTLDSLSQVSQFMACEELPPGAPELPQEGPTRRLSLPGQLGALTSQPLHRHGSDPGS

The experiment concerns the target human ether-à-go-go-related gene (hERG) potassium channel (human, UniProt Q12809). The experiment in a line: primary screen, population patch clamp on CHO cells stably expressing hERG.
With `CCOC(=O)c1cc(-c2ccccc2C)nn1CC1CC(c2ccc(OC)cc2)=NO1` (stereo not drawn), the “hERG current change (%, negative = inhibition) at 1uM” value was found to be 5.77%.
The figure for `Cn1cc(CCNC(=O)c2ccc3nc(Cc4ccccc4F)oc3c2)cn1` is 13.4%.
Consider `CC(=O)c1ccc(OC(C)C)c(Cc2c(O)[nH]c(=S)[nH]c2=O)c1`, for which the “hERG current change (%, negative = inhibition) at 1uM” value is 7.4%.
Consider `O=c1oc2ccccc2n1Cc1cccc(C(F)(F)F)c1`, for which the “hERG current change (%, negative = inhibition) at 1uM” value is listed as 4.88%.
The figure for `Nc1ccc(O)cc1` is 10.2%.
Next, `COc1ccc(/C(O)=C2/C(=O)C(=O)N(CC3CCCO3)C2c2cccc(O)c2)cc1` (stereo not drawn): 12.9%.
Regarding `CN1CCN(S(=O)(=O)c2ccc(NC(=O)COc3ccccc3Cl)cc2)CC1`, the “hERG current change (%, negative = inhibition) at 1uM” value amounted to 10.3%.
Regarding `COc1ccc(CCNC(=O)CCCn2nc(C)c([N+](=O)[O-])c2C)cc1OC`, the “hERG current change (%, negative = inhibition) at 1uM” value is on record as 9.07%.
Take `CCn1c(CNC(=O)c2cc(OC)c(OC)c(OC)c2)cc2cc(C)ccc21`: the “hERG current change (%, negative = inhibition) at 1uM” value was 15.6%.
The figure for `Cl.Fc1ccc(C(c2nnnn2Cc2cccs2)N2CCN(C3CCCC3)CC2)cc1` (stereo not drawn) is -49.7%.
The figure for `CCOc1cnc(-c2ccccc2F)o1` is 8.13%; for `COC(=O)Cn1c(=NC(=O)CN2C(=O)CCC2=O)sc2cc(S(N)(=O)=O)ccc21` it is 14.3%.
The figure for `Nc1nc(N)nc(-c2cc(C(F)(F)F)ccc2Cl)n1` is 10.9%; for `CCOC(=O)CNC(=O)C(Cc1ccccc1)NS(=O)(=O)c1cccs1` (stereo not drawn) it is 1.64%; for `CC(C)C(=O)NNc1nc2ccccc2s1` it is 2.3%.
As for `COc1ccc(C(=O)N2CCN(c3nnnn3-c3ccccc3)CC2)cc1OC`, the “hERG current change (%, negative = inhibition) at 1uM” value is recorded as -3.84%.
The figure for `CN(CC(=O)N1CCCC1)S(=O)(=O)c1ccc2ccccc2c1` is 9.52%; for `COc1ccccc1/C=C/C=N/N1CCN(Cc2ccc(Cl)cc2)CC1.Cl` it is 12.2%; for `O=S(=O)(NCCN1CCOCC1)c1cc(Cl)c(Cl)cc1Cl` it is 15.1%.
The figure for `C=CCN(C(=O)c1ccccc1)C1CCS(=O)(=O)C1` (stereo not drawn) is 8.54%; for `O=C(COc1cccc2c1CCNC2=O)Nc1cccc(F)c1` it is 12.4%.
Next, `COc1ccc(O)c(C=Nc2cc(NC(C)=O)c(Cl)cc2Cl)c1`: 5.64%.
Take `CCN(CC)c1cc(Oc2ccccc2)ncn1`: the “hERG current change (%, negative = inhibition) at 1uM” value was 6.65%.
Next, `Cc1cc2c(OCC(O)CNC3CCCCC3)cccc2[nH]1` (stereo not drawn): 13%.
Next, `Cc1cc(SCC#N)nc2ccccc12`: 6.69%.
Next, `COCCC(=O)N1CCC(Oc2ccc(C(=O)NCCc3cnn(C)c3)cc2)CC1`: 14.3%.
For the compound `CCCOc1ccc(C(C)=O)cc1CN1CCOCC1.Cl`, the “hERG current change (%, negative = inhibition) at 1uM” value turned out to be 3%.
The figure for `CCC(C)(C)NC(=O)C(c1ccccc1)N(Cc1cccnc1)C(=O)c1csnn1` (stereo not drawn) is 9.71%; for `CN(CCc1ccccn1)C(=O)Nc1ccc(F)cc1` it is 13.4%; for `Cc1noc(C)c1C(=O)N(C)Cc1ccccc1` it is 15.6%.
Next, `COc1ccc(N(CC(=O)NC(C)C)S(=O)(=O)c2ccc(NC(C)=O)cc2)cc1`: 1.39%; `CCOC(=O)C1=C(C)NC(=O)NC1c1cc(C)sc1C` (stereo not drawn): 11.1%.
Next, `CC(C)c1ccc(CC(C)C2C3=C(CCCC3=O)OC3=C2C(=O)CCC3)cc1` (stereo not drawn): 6.33%; `O=C1CC(c2cccc(Cl)c2)C(n2cncn2)C(=O)C1C1NCCc2ccccc21` (stereo not drawn): 3.48%; `Cc1ccc(S(=O)(=O)NCCNS(=O)(=O)c2ccc(C)cc2)cc1`: 14.6%.
For the compound `COc1ccc(C(=O)NCCCNC(=O)c2cccnc2)cc1OC`, the “hERG current change (%, negative = inhibition) at 1uM” value is listed as 12%.
The figure for `Cl.O=C1OC(CN2CCOCC2)CN1N=Cc1ccc([N+](=O)[O-])o1` (stereo not drawn) is 4.56%.
The figure for `CC(C)CNC(=O)[C@@H]1CSC2c3ccccc3C(=O)N21` (stereo partly drawn) is 4.61%.
Next, `Cn1nc(C(=O)Oc2cc(=O)n(C)c3ccccc23)c2ccccc2c1=O`: 19.2%; `CCn1c(SCC(=O)Nc2ccc3c(c2)n(C)c(=O)n3C)nnc1-c1ccncc1`: 7.57%.
In the case of `O=C(CC1C(=O)NCCN1Cc1ccccc1C(F)(F)F)NCCN1CCCCC1=O` (stereo not drawn), the “hERG current change (%, negative = inhibition) at 1uM” value is 15.4%.
Next, `COC(CN(C)S(=O)(=O)c1cc2c3c(c1)CCC(=O)N3CCC2)OC`: 16.2%; `N#Cc1c(N)nc2c(c1-c1ccncc1)CCCCC2`: 5.34%.
Next, `CCn1nnnc1SCC(=O)N1CCOCC1`: 13.9%; `O=C(O)c1ccc(Cl)c(S(=O)(=O)N(Cc2ccccc2)c2ccccc2)c1`: 10.1%; `CCCc1cc(=O)[nH]c(SCc2nc3ccc([N+](=O)[O-])cc3[nH]2)n1`: 10.9%.
The figure for `Cn1cc([N+](=O)[O-])c(C(=O)Nc2ccn(C34CC5CC(CC(C5)C3)C4)n2)n1` is -3.5%.
For `COCCCNC(=O)CSc1nc2ccc(N3CCOCC3)cc2c(=O)n1CCc1ccccc1`, the “hERG current change (%, negative = inhibition) at 1uM” value is given as -23.2%.
`CC(C)COC(=O)NCCCOC(=O)Nc1ccccc1`: the “hERG current change (%, negative = inhibition) at 1uM” value was 8.14%.
Next, `c1ccc(-c2nc3ccccc3[nH]2)nc1`: 14.4%; `CC1(C)Oc2ccc3ccc(=O)oc3c2/C(=C/NNC(N)=S)C1=O`: 9.83%; `Cc1cc(C)n2nc(-c3sccc3-n3cccc3)cc2n1`: 12.3%.
With `CCOc1ccc(/C=C/C(=O)c2cc(Br)ccc(=O)c2O)cc1`, the “hERG current change (%, negative = inhibition) at 1uM” value is on record as -0.499%.
Next, `CCOC(=O)C1(CCCc2ccccc2)CCN(C2CCC2)CC1`: -57.1%; `Cc1cc(Cl)ccc1NC(=O)CCN1C(=O)NC(C)(C)C1=O`: 6.2%.
The figure for `Cc1cc(C)c2nc(N3CCOCC3)c(C#N)cc2c1` is 24.1%; for `CC1=C(C(N)=O)C(c2ccccc2F)n2nc(CCCO)nc2N1` (stereo not drawn) it is 15.7%; for `O=c1ccc(N=Nc2ccccc2)ccc1O` it is 11.8%.
The figure for `COc1ccccc1CNC(=O)C(NC(=O)c1ccc(C)cc1)C(C)C` (stereo not drawn) is 3.01%; for `CCOC(=O)N1CCN(CC(O)COc2ccccc2C(C)CC)CC1.Cl` (stereo not drawn) it is 10.4%.
